Laboratory results taken from PubChem BioAssay AID463173 (ICCB-Longwood Screening Facility, Harvard Medical School, 2010).
About 1,700 (3.3%) of roughly 52,000 compounds were called active. No stated cut-off is given here; in the data, active means survival mostly below about 52% (no sharp cut-off); inactive means mostly above about 56%. This is one part of the list.

The compounds below were run on Wild type (assay: S. aureus survival, RN4220 and DeltatarO strains – OD600, teichoic acid synthesis inhibitors, primary screen (AID 463173)). Details: S. aureus RN4220 wild type/DeltatarO growth, OD600, 18 h, active compounds read low, screened at 18.75 µg/mL (by protocol).

SMILES	survival
COc1cccc2cc(C(=O)Nc3ccc(F)c(F)c3)c(=O)oc12	inactive: 88%
COc1ccc(-c2ccc(SCC(=O)N3CCC(C)CC3)nn2)cc1	inactive: 105%
CC1(C)C(=O)N(CC(=O)Nc2cccc(F)c2)c2ccc(S(=O)(=O)N3CCCCC3)cc21	inactive: 55%
Cc1nn(-c2ccccc2)c2c1N(CC(=O)N1CCN(c3ccc(F)cc3)CC1)C(=O)CS2	inactive: 68%
CCOc1cc(-c2nnc(SCC(=O)NC3CCCC3)nc2-c2ccc(OC)c(OCC)c2)ccc1OC	inactive: 66%
CCCCCSc1nnc(-c2ccc(Br)cc2)o1	active: -1%
Cc1ccc(Cl)cc1-n1c(=O)c2sc3ccccc3c2n(Cc2ccccc2)c1=O	inactive: 77%
COc1ccccc1Nc1cccc2nonc12	inactive: 116%
CC(=O)Nc1ccc2sc(C)nc2c1	inactive: 111%
CC(C)CCN1C(=O)c2ccccc2CC1(C)C(=O)NC1CCC(C)CC1 (configuration not stated)	inactive: 85%
O=C(CSc1nccn1C1CCCC1)Nc1ccc(C(F)(F)F)cc1	inactive: 70%
O=C(Nc1cccc(F)c1)[C@H](CSCc1ccccc1)N1Cc2ccccc2C1=O	inactive: 64%
CCOc1ccc(NC(=O)Cn2cc(S(=O)(=O)NC)c(S(=O)(=O)NC)c2)cc1	inactive: 65%
COc1ccc(NC(=O)C2CCN(S(=O)(=O)c3ccc4[nH]c5c(c4c3)CCCCC5)CC2)cc1	inactive: 126%
CC(C)c1ccc(-c2nc(C(N)=O)c3c(n2)n(-c2ccc4c(c2)OCO4)c(=O)n3C)cc1	inactive: 60%
Cc1ccc(NC(=O)C2CCCN(c3ncnc4onc(-c5ccc(F)cc5)c34)C2)c(Cl)c1 (configuration not stated)	inactive: 74%
CCCCOc1cccc(C(=O)Nc2cccc(-c3nc4ncccc4o3)c2C)c1	inactive: 72%
CCOC(=O)C1=C(C)NC(=O)NC1c1cn(-c2ccccc2)nc1-c1ccc(OCC)cc1 (configuration not stated)	inactive: 66%
CCC1SC(=S)N(CC(=O)O)C1=O (configuration not stated)	inactive: 113%
Cc1cccc(N2CCN(C(=O)CN3C(=O)COc4ccc(S(=O)(=O)N5CCCCCC5)cc43)CC2)c1C	inactive: 88%
CN(C)C(=O)N(C)C1CCS(=O)(=O)C1 (configuration not stated)	inactive: 110%
CSc1ncc(C(=O)N2CCN(c3cc(C)ccc3C)CC2)c(C)n1	inactive: 68%
CCn1c(=N)c(C(=O)NCc2ccccc2)cc2c(=O)n3cc(C)ccc3nc21	inactive: 74%

SMILES	survival
CCCNS(=O)(=O)c1ccc(-n2cnnn2)c(OC)c1	inactive: 102%
CCCCNC(=O)C(Cc1ccccc1)NS(=O)(=O)c1ccc2c(c1)c(=O)n(C)c(=O)n2C (configuration not stated)	inactive: 90%
Cc1oc(-c2ccc(C(=O)NCc3ccc(Cl)cc3)cc2)nc1CS(=O)(=O)c1ccccc1	inactive: 72%
CC(C)c1ccc(N2C(=O)CS(=O)(=O)C23C(=O)N(Cc2cccc(F)c2)c2ccccc23)cc1 (configuration not stated)	inactive: 66%
CCOc1ccc(-c2ncnn2-c2sc3c(c2C#N)CCCCC3)cc1	active: 3%
CCC1CN(C(=O)NCc2ccc(C)cc2)c2ccccc2O1 (configuration not stated)	inactive: 106%
CC(C)(C)n1nnnc1C(c1ccc2ncccc2c1)N1CCOCC1 (configuration not stated)	inactive: 110%
Cc1ccc(C)c(NC(=O)c2cc(S(=O)(=O)N3CCCc4ccccc43)ccc2F)c1	inactive: 84%
Cc1cc(C)c(OCC(=O)N(Cc2ccco2)Cc2ccco2)c(C)c1	inactive: 84%
CCOC(=O)c1ccc(NS(=O)(=O)c2ccc(-c3cc(C)no3)cc2)cc1	inactive: 81%
Cc1nc2ccc(S(=O)(=O)N3CCCCC3)cc2s1	inactive: 113%
CSc1ncc(C(=O)Nc2c(C)cccc2C)c(-c2ccccc2)n1	inactive: 80%
Cc1ccc(S(=O)(=O)C2(C(=O)O)CC2)cc1C	inactive: 107%
Cc1nc2ccccc2c(=O)n1-c1ccc(NC(=O)c2cccc([N+](=O)[O-])c2)cc1	inactive: 59%
COc1ccccc1CCNC(=O)c1ccc(-c2nc(CSc3ccc(C)cc3)c(C)o2)cc1	inactive: 81%
Oc1ccc2ccccc2c1CN1CCOCC1	inactive: 99%
COc1ccc(Cn2ccc3nc(C)c(C(=O)Nc4cc(C)cc(C)c4)cc3c2=O)cc1	inactive: 99%
CCCC(O)c1nc2ccccc2n1Cc1ccccc1OC (configuration not stated)	inactive: 108%
Cc1nc2ccccc2n1C(=O)CCC(=O)O	inactive: 103%
COc1cc(NC(=O)CN2c3ccccc3S(=O)(=O)c3ccccc32)cc(OC)c1	inactive: 73%
CCN(CC)S(=O)(=O)Cc1ccccc1	inactive: 103%
C=CCn1cc(F)c(=O)n(CC=C)c1=O	inactive: 109%
CCC1CN(C(=O)N2CCC(C(=O)NCCc3ccccc3Cl)CC2)c2cc(C)ccc2O1 (configuration not stated)	inactive: 94%

SMILES	survival
Cc1ccc(Nc2nnc(-c3ccc(C)c(S(=O)(=O)N4CCN(C)CC4)c3)c3ccccc23)cc1	inactive: 76%
CCOc1c(C)cc(-c2ncccc2O)cc1C	inactive: 121%
CC1CCN(c2ncccc2C(=O)NC2CCCCC2)CC1	inactive: 125%
CCOCCCn1c(SCC(=O)OCC)nc2c(sc3ccccc32)c1=O	inactive: 136%
COCCNC(=O)CSc1nc(-c2cc(OC)c(OC)c(OC)c2)[nH]c1-c1ccc(Cl)cc1	inactive: 88%
Cc1ccc(C(=O)CSc2nc(-c3ccccc3)nc3c2CCCC3)c(C)c1	inactive: 58%
Cc1ccc(S(=O)(=O)N(CCO)Cc2cc3cc(C)c(C)cc3[nH]c2=O)cc1	inactive: 107%
Cc1cccc(C(C)C)c1NC(=O)C1CCCN1S(=O)(=O)c1cccc2nsnc12 (configuration not stated)	inactive: 76%
CCc1ccc(C(=O)CC2(O)C(=O)N(C(C)C)c3ccccc32)cc1 (configuration not stated)	inactive: 111%
Cc1oc2c(c1C(=O)NCc1cc(C(=O)O)co1)CCCC2	inactive: 116%
O=S(=O)(CCN1CCOCC1)c1ccc(Oc2ccc(S(=O)(=O)CCN3CCOCC3)cc2)cc1	inactive: 110%
CNC(=O)C1CCC(Cn2c(=O)c3sccc3n(CC(=O)Nc3ccc(C)c(C)c3)c2=O)CC1 (configuration not stated)	inactive: 82%
O=C(Cc1ccc(F)cc1)Nc1nncs1	inactive: 110%
O=S(=O)(c1ccccc1)c1nnn2c1nc(NC1CCCCC1)c1sccc12	inactive: 94%
CCCCn1cc(S(=O)(=O)c2ccc(OC)cc2)c(=O)c2cc(CC)ccc21	inactive: 79%
Cc1ccc(Cl)cc1NC(=O)Nc1nnc(N(C)Cc2ccccc2)s1	inactive: 93%
Cn1c(=O)c2c(SCC(=O)Nc3ccccc3C(F)(F)F)nc(C3CCCC3)nc2n(C)c1=O	inactive: 72%
CCc1ccc(NC(=O)CN(c2ccc(C)cc2)S(=O)(=O)c2cccs2)cc1	inactive: 76%
COc1ccc(-c2cc(C)no2)cc1S(=O)(=O)N1CCc2ccccc21	inactive: 76%
O=C(O)CCCCn1c(SCC(=O)Nc2ccccc2C(F)(F)F)nc2ccsc2c1=O	inactive: 73%
Cc1ccc(CN(C(=O)c2ccccc2)c2ccccn2)o1	inactive: 104%
CC(=O)N1CCc2nc3sc(C(=O)c4ccc(F)cc4)c(N)c3c(C(F)(F)F)c2C1	inactive: 69%
Cc1ccc(C(=O)Nc2ccc(S(=O)(=O)N3CCC(c4nc5ccccc5s4)CC3)cc2)cc1	inactive: 93%

SMILES	survival
Cc1ccc(OCC(=O)Nc2nnc(S(=O)(=O)N3c4ccccc4CC3C)s2)cc1 (configuration not stated)	inactive: 48%
Cc1ccc(NC(=O)c2nc(S(C)(=O)=O)ncc2N(Cc2ccco2)Cc2cccs2)c(C)c1	inactive: 77%
Cc1ccc(NC(=O)CSc2nc(=O)n(CCN3CCOCC3)c3c2CCC3)c(C)c1	inactive: 72%
CC(=O)c1cccc(NC(=O)c2nc(-c3ccccc3)n(-c3cccc(Cl)c3)n2)c1	inactive: 72%
CCc1ccc(NC(=O)C(=O)NCC(c2cccnc2)N2CCN(c3ccc(F)cc3)CC2)cc1 (configuration not stated)	inactive: 103%
N=C(N=C(N)N)N1CCCc2ccccc21	inactive: 89%
Cc1nnc(N2CCC(C(=O)N3CCCCC3)CC2)c2nn(-c3ccc(Cl)cc3)c(C)c12	inactive: 74%
Cc1ccc(OCCCCn2nnc3sc4c(c3c2=O)CCCC4)cc1	inactive: 91%
NC(=O)CSc1nnc(-c2ccco2)n1Cc1ccco1	inactive: 91%
O=C(CNCC1CCCO1)NCc1ccco1 (configuration not stated)	inactive: 112%
CC(=O)c1cc(-c2ccccc2)n(CCC(=O)NCc2ccc(C)cc2)c1C	inactive: 88%
CCc1ccc(NC(=O)Cn2c(=O)n(CCCCC(=O)NCc3ccc4c(c3)OCO4)c(=O)c3ccccc32)cc1	inactive: 95%
CCOc1ccccc1Nc1sc(C(=O)c2ccccc2)c(N)c1C(=O)Nc1ccccc1	inactive: 99%
CC(C(=O)O)c1nn(C)c(=O)c2ccccc12 (configuration not stated)	inactive: 124%
CCOC(=O)c1c(C)n(C2CCCCC2)c2ccc(OCC(N)=O)cc12	inactive: 120%
COc1ccc(-c2noc(N(c3nc(-c4ccc(OC)c(OC)c4)no3)c3ccccc3OC)n2)cc1OC	inactive: 130%
CCc1ccc2[nH]c(=O)c(CN(CCCN3CCOCC3)C(=S)NC)cc2c1	inactive: 115%
CCOc1ccccc1CNc1ccc2cc(S(=O)(=O)N3CCC(C)CC3)ccc2n1	inactive: 67%
COc1ccc(-c2nn3c(=O)cc(CN4CCN(C(=O)c5ccc(OC)c(OC)c5)CC4)nc3s2)cc1	inactive: 68%
CCOc1ccccc1NC(=O)c1ccc2c(Cl)c3c(nc2c1)CCC3	inactive: 78%
CC(C)(C)c1ccc(C(=O)Nc2ccc3c(c2)CCCN3C(=O)c2cccs2)cc1	inactive: 66%
Cc1ccc(C)c(N2CCN(C(=O)NC3CCCCC3)CC2)c1	inactive: 103%
COC(=O)c1ccc(NC(=O)CSc2nc(C)cc(C)c2C(=O)Nc2ccccc2)cc1	inactive: 78%
